In the RNAGym collection of RNA variant scans (doi:10.1093/nar/gkz1192):
The source gives no read counts; variants with many changes may rest on few reads.

B1: CPEB3 Ribozyme (parent)
chain: UAACAGGGGGCCACAGCAGAAGCGUUCACGUCGCAGCCCCUGUCAGAUUCUGGUGAAUCUGCGAAUUCUGCUGUAUAUCUC

Variants of: B1
Assay: self-cleavage, relative activity (ratio to wild type); higher = more cleavage; in vitro, sequencing
Summary of the method: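 After error-prone PCR and barcoding, CPEB3 ribozyme mutant libraries were transcribed with T7 RNA polymerase at 37°C for 5 hours, then given 15 min with DNase I before an EDTA stop, and they cleaved during both steps. Reverse transcription with template switching preceded Illumina sequencing. Relative activity divides a variant's cleaved/total read fraction by the unmutated ribozyme's. At least 5 reads were required per variant, and three batches were averaged.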
For A18U U25C A35G U43C A45G, the self-cleavage was 0.12.
A18U U26A A35U U43A showed a self-cleavage of 0.09.
In the case of A18U U25C A28C U60A U69A U80A, the self-cleavage is reported as 0.3.
Work on A18U U41C G63A U72C yielded a self-cleavage of 0.4.
Variant G19C U41C U72C has a self-cleavage of 0.37.
Variant A18U U72C A77G has a self-cleavage of 0.38.
For G19A U25A G36C U51G U66C, the self-cleavage was 0.05.
For G19C C27U A47G A64G, the self-cleavage was 0.22.
For A18U U31C U41C U54G U78C U80C, the self-cleavage was 0.1.
A18U G36A A56G U60C showed a self-cleavage of 0.08.
Work on A18U U60C U72C yielded a self-cleavage of 0.09.
A18U U25A A35G U78C showed a self-cleavage of 0.19.
A18U U26C A45G showed a self-cleavage of 0.68.
Work on A18U U54C G55U yielded a self-cleavage of 0.23.
G19C A21G U54C A56C G73U U78C showed a self-cleavage of 0.04.
Variant A18U U31A A45G U66A A77G has a self-cleavage of 0.07.
Variant A18U U41C U51G A65G has a self-cleavage of 0.22.
In the case of A18U U49A U69C U74C, the self-cleavage is reported as 0.47.
Work on A18U U26C U49C yielded a self-cleavage of 0.13.
A18U U25C U54C U58A U69A showed a self-cleavage of 0.09.
Work on G19A U25C U31A yielded a self-cleavage of 0.29.
With A18U U25C C29G U80C the self-cleavage was 0.21.
G19C G36A U41G A45G A56G U58C U80A showed a self-cleavage of 0.05.
Variant A18U U25A A56G has a self-cleavage of 0.11.
Work on A18U U25A U26C U31C U41C yielded a self-cleavage of 0.26.
For A18U U51C U60C U69C U76C, the self-cleavage was 0.3.
Variant A18U U51A U66C U78C has a self-cleavage of 0.32.
A18U U26A A45G showed a self-cleavage of 0.14.
With A18U U25A U41G the self-cleavage was 0.09.
Work on A18U U58C A75U yielded a self-cleavage of 0.43.
With A18U U25A U26G C29A U43C C62G U66C the self-cleavage was 0.17.
For A18U G33C U43A A45G C59U C62A, the self-cleavage was 0.05.
A18U U26A A47G U54C U58C C71A gave a self-cleavage of 0.07.
In the case of A18U U54G U72A U80C, the self-cleavage is reported as 0.47.
Work on A18U U51C A64U U78C yielded a self-cleavage of 0.33.
Work on A18U U25C U51C U54C yielded a self-cleavage of 0.14.
Work on A18U U54C U78C yielded a self-cleavage of 0.32.
With A18U U26C G46A A64G A75U the self-cleavage was 0.18.
Variant A18U U31C U41C U72C has a self-cleavage of 0.14.
With G19C G70U U80C the self-cleavage was 0.16.
G19A A21C C39U showed a self-cleavage of 0.05.
A18U U31C A57G gave a self-cleavage of 0.16.
Work on G19C A57G A65G yielded a self-cleavage of 0.25.
Variant A18U U58G U67C has a self-cleavage of 0.14.
In the case of G19C A28G A47G A64G, the self-cleavage is reported as 0.23.
In the case of G19C U49C A75G, the self-cleavage is reported as 0.16.
Variant A18U U25C A45U A65U U76G has a self-cleavage of 0.05.
Variant A18U U43A U54C has a self-cleavage of 0.43.
Variant A18U G46C U58A U72G has a self-cleavage of 0.02.
In the case of A18U U25C U49C U67C, the self-cleavage is reported as 0.14.
A18U U43C A45G showed a self-cleavage of 0.19.
A18U U31A U74C gave a self-cleavage of 0.42.
A18U U41C A64G A77U showed a self-cleavage of 0.4.
Work on A18U U51C U78C yielded a self-cleavage of 0.41.
G19C U26C A28U U49C A65G showed a self-cleavage of 0.07.
G19A U26C G42A U51C showed a self-cleavage of 0.07.
With A18U U41C U54A A56G A57G U60A A64G the self-cleavage was 0.
For A18U U25C U31C A47U U69A A75G, the self-cleavage was 0.06.
For G19A U25C G42A C50A, the self-cleavage was 0.16.
A18U U51C C62U gave a self-cleavage of 0.27.
In the case of A18U U41C C62A, the self-cleavage is reported as 0.17.
Work on A18U U26C U58C yielded a self-cleavage of 0.08.
With G19A C38G A65G U69A the self-cleavage was 0.04.
With A18U U25C G36A the self-cleavage was 0.2.
In the case of A18U U26A A65G, the self-cleavage is reported as 0.42.
With A18U U41C U66C A75C the self-cleavage was 0.17.
With A18U U31C U69G the self-cleavage was 0.48.
Work on A18U U26C U48C U51C U67C U69C yielded a self-cleavage of 0.06.
A18U U43C A64G showed a self-cleavage of 0.1.
G19A A20C A45G C79U showed a self-cleavage of 0.07.
A18U U41C G61A U69G C79U showed a self-cleavage of 0.85.
In the case of G19C U31A G36A A56G U67C U78C, the self-cleavage is reported as 0.05.
For A18U U25C A35G U80C, the self-cleavage was 0.43.
With A18U U26A G30C U74C the self-cleavage was 0.24.
Variant A18U U25C C50A U54A U67C U72A has a self-cleavage of 0.1.
Variant A18U U49C U66A U78C U80C has a self-cleavage of 0.06.
For G19C U25C U60A, the self-cleavage was 0.06.
Work on G19A A20G U76G C79A yielded a self-cleavage of 0.49.
Variant G19A A20G U54C G55U U58A U60C has a self-cleavage of 0.08.
Variant A18U U26C C37U U54C U72A U74C has a self-cleavage of 0.04.
With A18U U60G U78A the self-cleavage was 0.2.
G19A U26A G42A U43C U51C showed a self-cleavage of 0.06.
Work on A18U U26C G46U A57G yielded a self-cleavage of 0.06.
In the case of A18U U43G U60C A64G U78A U80A, the self-cleavage is reported as 0.22.
With A18U U41C A75U the self-cleavage was 0.32.
A18U U41C A75G gave a self-cleavage of 0.57.
A18U U25C U78A showed a self-cleavage of 0.07.
For A18U U25C C50A, the self-cleavage was 0.37.
A18U U41G U78A showed a self-cleavage of 0.07.
A18U U25C C29U U41C A56U U76A showed a self-cleavage of 0.17.
For A18U U31A C37G C40U U43C, the self-cleavage was 0.17.
With G19A U41A G46A U58A A77G the self-cleavage was 0.07.
With A18U U41C U69A U72C the self-cleavage was 1.02.
In the case of A18U U31C A64U, the self-cleavage is reported as 0.16.
A18U U31C U58C gave a self-cleavage of 0.16.
A18U U54C U58C gave a self-cleavage of 0.18.
Variant G19A A35U C71G has a self-cleavage of 0.11.
A18U U31A A45G A47G showed a self-cleavage of 0.32.
A18U U31A A56U U60A U74A showed a self-cleavage of 0.21.
Variant A18U U26C C39G U43C U54C has a self-cleavage of 0.17.
G19C U43C A45G U60A U66A gave a self-cleavage of 0.15.
In the case of A18U U31A C34U U72C, the self-cleavage is reported as 0.06.
G19A A20G C39A showed a self-cleavage of 0.21.
Work on A18U U26C U51C A75U U76C yielded a self-cleavage of 0.06.
A18U U26A A57G showed a self-cleavage of 0.19.
A18U U26C A65G showed a self-cleavage of 0.3.
A18U U43A A57C G70A U74C showed a self-cleavage of 0.13.
A18U U25G U41A G53C A64G gave a self-cleavage of 0.06.
With G19C U41A A47G C59A the self-cleavage was 0.07.
With G19A A20U U43C A57G the self-cleavage was 0.12.
A18U U51C U58A showed a self-cleavage of 0.24.
Variant G19C U41A A65G U74A has a self-cleavage of 0.14.
Work on A18U U41C U60C U80A yielded a self-cleavage of 0.11.
For G19A U48C U74A, the self-cleavage was 0.41.
Work on A18U U66A A77U yielded a self-cleavage of 0.18.
A18U U54G A57G A64U showed a self-cleavage of 0.16.
Variant A18U U26A A28G C40U G63A A75C has a self-cleavage of 0.06.
With A18U U25C U31A U60C U67C A77G the self-cleavage was 0.07.
A18U U43A A56U U72A showed a self-cleavage of 0.13.
A18U G55U U58A U72C showed a self-cleavage of 0.15.
G19C U48A A75U U80G showed a self-cleavage of 0.05.
Work on A18U U43G A45U U74A yielded a self-cleavage of 0.06.
Variant A18U U43C U58C U60C A65G has a self-cleavage of 0.3.
G19A A45G U60C U66G U69C showed a self-cleavage of 0.08.
In the case of A18U U48A A56U, the self-cleavage is reported as 0.13.
With A18U U25A U31A U41G A47C U51C A77C the self-cleavage was 0.17.
With A18U U26C C32G A47G U48C U72A the self-cleavage was 0.14.
A18U U58C G61U showed a self-cleavage of 0.16.
Work on A18U U51C A56U yielded a self-cleavage of 0.19.
For A18U G33C U60C, the self-cleavage was 0.14.
A18U U26C U69A showed a self-cleavage of 0.58.
Variant A18U G36A U48C has a self-cleavage of 0.16.
Work on A18U U41C A45G A47G U69C U72C yielded a self-cleavage of 0.11.
Variant A18U U26C U31C U67G U76C has a self-cleavage of 0.12.
Variant A18U U66A A75U has a self-cleavage of 0.24.
With A18U G55U U80C the self-cleavage was 0.37.
Variant A18U U25A U54C G63U C68U has a self-cleavage of 0.18.
With A18U U25C U31A U41C A45G A65U the self-cleavage was 0.06.
A18U U67C U78C gave a self-cleavage of 0.12.
Variant G19A U49C U54G has a self-cleavage of 0.08.
A18U U48C U51C A56C A65G showed a self-cleavage of 0.
Work on G19A U43A U49A U72G A77G yielded a self-cleavage of 0.24.
Variant G19A U25C U72C has a self-cleavage of 0.42.
For A18U U25C A45G U54A, the self-cleavage was 0.19.
Work on G19C U25C U78C yielded a self-cleavage of 0.26.
Work on A18U U25C A28U U43C A45U A47G A64U yielded a self-cleavage of 0.06.
For G19A U41C U48C U51C, the self-cleavage was 0.14.
G19A A35G G46A U76C showed a self-cleavage of 0.13.
Work on A18U U51A A56G yielded a self-cleavage of 0.25.
G19A U26C A28G A45G G46U U78A gave a self-cleavage of 0.08.
In the case of A18U U43C U51A G61A, the self-cleavage is reported as 0.4.
For A18U U43C U54A A57G U60C, the self-cleavage was 0.27.
A18U U41C A65U U67C showed a self-cleavage of 0.15.
Variant G19A A21G U54C A56U has a self-cleavage of 0.08.
A18U U41A U54G U69A U78A gave a self-cleavage of 0.06.
With A18U U25C A47G U69A U78A the self-cleavage was 0.07.
Work on A18U U43C C62U yielded a self-cleavage of 0.3.
G19C A20G C40U U51C U72C U76C gave a self-cleavage of 0.13.
In the case of A18U U25A U67C U80A, the self-cleavage is reported as 0.2.
With A18U U60C U80C the self-cleavage was 0.24.
For A18U U49C U78A U80C, the self-cleavage was 0.23.
A18U U25C U58C U76A gave a self-cleavage of 0.08.
For A18U U31C C32G U41A U60A C81A, the self-cleavage was 0.05.
Variant A18U U31C C40A U69C has a self-cleavage of 0.13.
G19A U26A U31C U67C showed a self-cleavage of 0.09.
A18U U25C U41A U48C U58C showed a self-cleavage of 0.24.
Work on G19A U25G U31G A65G U67C U80C yielded a self-cleavage of 0.05.
